Test results taken from publication PMC4336329 (PLoS ONE, 2015).
Out of some 310,000 compounds screened, about 2,200 (0.71%) showed an effect of 50% or more. The effect is printed as a negative number. Some of the results follow.

What follows are molecules tested against human ether-à-go-go-related gene (hERG) potassium channel (human, UniProt Q12809) (assay: primary screen, population patch clamp on CHO cells stably expressing hERG).
Sequence of human ether-à-go-go-related gene (hERG) potassium channel (Q12809 whole entry, looked up): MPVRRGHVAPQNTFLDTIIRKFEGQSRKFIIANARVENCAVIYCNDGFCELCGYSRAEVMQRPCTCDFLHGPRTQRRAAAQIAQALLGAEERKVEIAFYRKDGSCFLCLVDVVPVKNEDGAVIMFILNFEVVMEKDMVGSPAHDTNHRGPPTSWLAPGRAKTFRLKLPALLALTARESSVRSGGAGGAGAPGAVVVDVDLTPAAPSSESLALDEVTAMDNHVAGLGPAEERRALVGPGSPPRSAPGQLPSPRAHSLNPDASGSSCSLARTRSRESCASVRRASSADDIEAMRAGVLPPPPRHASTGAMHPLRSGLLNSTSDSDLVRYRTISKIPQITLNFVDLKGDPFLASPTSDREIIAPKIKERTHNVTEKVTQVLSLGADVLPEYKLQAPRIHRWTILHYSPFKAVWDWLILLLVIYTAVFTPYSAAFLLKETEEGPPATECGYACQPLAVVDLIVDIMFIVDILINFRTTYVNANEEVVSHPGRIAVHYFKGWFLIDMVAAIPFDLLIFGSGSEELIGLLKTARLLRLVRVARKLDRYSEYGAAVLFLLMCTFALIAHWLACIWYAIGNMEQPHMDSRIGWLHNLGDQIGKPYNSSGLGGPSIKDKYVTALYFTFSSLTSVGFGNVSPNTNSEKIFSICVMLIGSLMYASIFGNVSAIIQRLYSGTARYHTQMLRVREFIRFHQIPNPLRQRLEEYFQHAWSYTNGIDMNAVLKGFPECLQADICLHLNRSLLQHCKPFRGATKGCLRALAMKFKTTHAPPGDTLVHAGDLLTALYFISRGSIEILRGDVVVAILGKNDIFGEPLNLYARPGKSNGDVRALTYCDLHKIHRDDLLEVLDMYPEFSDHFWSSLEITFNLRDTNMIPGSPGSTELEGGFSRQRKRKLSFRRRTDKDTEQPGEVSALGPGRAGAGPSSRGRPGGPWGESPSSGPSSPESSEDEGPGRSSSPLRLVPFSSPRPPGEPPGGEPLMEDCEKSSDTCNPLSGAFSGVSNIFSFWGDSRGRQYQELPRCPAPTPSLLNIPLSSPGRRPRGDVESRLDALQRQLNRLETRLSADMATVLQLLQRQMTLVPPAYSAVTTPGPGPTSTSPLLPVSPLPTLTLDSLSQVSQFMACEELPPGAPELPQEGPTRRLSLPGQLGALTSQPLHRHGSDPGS

Going from `CN(C)S(=O)(=O)Nc1cccc(-c2cn3c(n2)SCC3)c1` to `CNc1nc(-c2ccc3c(c2)CCN3C(=O)c2ccccc2C)cs1`, the “hERG current change (%, negative = inhibition) at 1uM” value falls from 15.4% to -11%.

Compared with `Cc1ccc(C(=O)c2oc3ccccc3c2N)cc1`, `Cc1ccc(/C(N)=N/OC(=O)c2ccc(Cl)cc2Cl)cc1` is higher in “hERG current change (%, negative = inhibition) at 1uM” value: 0.215% for the first, 6.75% for the second.

Going from `CCN(CC)S(=O)(=O)c1ccc(C(=O)N2CCN=C2SCc2cccnc2)cc1` to `COc1ccccc1CNC(=O)CCS(=O)(=O)c1ccc2c(c1)CCCN2C(C)=O`, the “hERG current change (%, negative = inhibition) at 1uM” value falls from 1.98% to 1.46%.

Compared with `Cc1ccccc1/C=C/c1nc2ccccc2c(=O)n1CCc1ccccc1`, `CC(NC(=O)c1cnc2ccccc2n1)c1ccccc1` (stereo not shown) is higher in “hERG current change (%, negative = inhibition) at 1uM” value: 10.1% for the first, 13.8% for the second.

Compared with `CCc1cc(C(c2ccccn2)N2CCN(C)CC2)c(NC(=O)c2ccccc2)s1` (stereo not shown), `O=C(CN1C(=O)c2ccccc2C1=O)Nc1ccccc1N1CCOCC1` is higher in “hERG current change (%, negative = inhibition) at 1uM” value: -1.07% for the first, 12.3% for the second.

Going from `O=c1c2[nH]c3ccc(Cl)cc3c2ncn1CCN1CCCCC1` to `CN1Cc2cccnc2N(C)Cc2cc(Cl)ccc21`, the “hERG current change (%, negative = inhibition) at 1uM” value rises from -43.9% to 0.37%.

Compared with `COc1cc2c(cc1OC)CN(C(=O)c1ccco1)CC2`, `COc1cc(/C=N/n2cnnc2)ccc1OCC(=O)N1CCOCC1` is higher in “hERG current change (%, negative = inhibition) at 1uM” value: 11.3% for the first, 16.5% for the second.

Going from `Clc1ccc(C(c2nnnn2C2CCCC2)N2CCSCC2)cc1` (stereo not shown) to `O=[N+]([O-])c1ccc(CN2CCN(c3ncccn3)CC2)cc1`, the “hERG current change (%, negative = inhibition) at 1uM” value rises from -2.04% to 5.23%.

Going from `CCNc1nc(CC)nc2c1oc1ccccc12.Cl` to `CC(C)CC(=O)N/C(N)=N/c1nc2ccccc2o1`, the “hERG current change (%, negative = inhibition) at 1uM” value rises from -4.86% to 8.41%.

Going from `Cn1c(=O)c2c([nH]c(=O)n2C)n(C)c1=O` to `COc1ccccc1C1=NOC(Cn2c(NCCCO)nc3c2c(=O)n(C)c(=O)n3C)C1` (stereo not shown), the “hERG current change (%, negative = inhibition) at 1uM” value falls from 18.7% to 3.11%.

First: CCOC(=O)CCc1c(C)nc2ncnn2c1C
Second: CCC(=O)Nc1ccc(NC(=O)CSc2nnnn2CC)cc1C
The “hERG current change (%, negative = inhibition) at 1uM” value of the first is lower: -3.06% for the first, 8.74% for the second.

Going from `CC1(c2ccc3c(c2)OCCCO3)NC(=O)N(CC(=O)Nc2cccc(C#N)c2)C1=O` (stereo not shown) to `Cc1ccc(NC(=O)c2cccc(NC(=O)CC3SC(N4CCCCC4)=NC3=O)c2)nc1` (stereo not shown), the “hERG current change (%, negative = inhibition) at 1uM” value falls from 13.2% to 7.13%.

Going from `COc1ccc(F)cc1S(=O)(=O)N1CCN(c2ccccn2)CC1` to `COc1cc(S(=O)(=O)n2cnc3ccccc32)ccc1Br`, the “hERG current change (%, negative = inhibition) at 1uM” value rises from 14% to 19.5%.

Going from `CCS(=O)(=O)N1Cc2ccccc2CC1C(=O)Nc1ncc(C)s1` (stereo not shown) to `O=C1OCCC1S(=O)(=O)c1ccc2ccccc2c1` (stereo not shown), the “hERG current change (%, negative = inhibition) at 1uM” value falls from 7.83% to -5.47%.

Compared with `NNC(=S)Nc1cc(S(=O)(=O)N2CCOCC2)ccc1N1CCOCC1`, `Cc1sc2ncn(CC(=O)NCCN3CCOCC3)c(=O)c2c1S(=O)(=O)N1CCC(C)CC1` is higher in “hERG current change (%, negative = inhibition) at 1uM” value: 7.2% for the first, 22.6% for the second.

Going from `COc1ccc(-n2c(Cc3cccn3C)nnc2SCC(=O)Nc2cccc(F)c2)cc1` to `CCCCN(C(=O)CSc1nnc(-c2ccccc2OC)n1C)c1c(N)n(Cc2ccccc2)c(=O)[nH]c1=O`, the “hERG current change (%, negative = inhibition) at 1uM” value rises from -23.3% to 14.5%.

Going from `Cc1ccc(C=Nc2cccnc2N)cc1` to `Oc1ccc(/C=N/N2CCN(Cc3ccccc3)CC2)cc1`, the “hERG current change (%, negative = inhibition) at 1uM” value falls from 18.6% to 14.6%.

First: COc1ccc(NC(=O)CCNS(=O)(=O)c2ccc(Cl)c([N+](=O)[O-])c2)cc1S(N)(=O)=O
Second: Cc1cc2cc(CNC(=O)Nc3ccc(Cl)c(Cl)c3)ccc2n1C
The “hERG current change (%, negative = inhibition) at 1uM” value of the first is higher: 13.3% for the first, 1.97% for the second.

Going from `CC(OC(=O)CN1C(=O)c2ccccc2C1=O)C(=O)c1ccccc1` (stereo not shown) to `O=C(CCC(=O)c1ccccc1)NCc1cccc(C(F)(F)F)c1`, the “hERG current change (%, negative = inhibition) at 1uM” value rises from 5.39% to 12%.

First: Cc1onc(C(=O)N2C(C)CCCC2C)c1[N+](=O)[O-] (stereo not shown)
Second: COCCC(=O)N1CCC(Oc2ccc(C(=O)NCc3cccc(C)n3)cc2)CC1
The “hERG current change (%, negative = inhibition) at 1uM” value of the first is lower: 10.3% for the first, 18.1% for the second.

Going from `CCOc1ccc(C(=O)OCC(=O)NC(C)C)cc1` to `CC(C)Oc1ccc(C(=O)OCC(=O)N2CCCc3ccccc32)cc1`, the “hERG current change (%, negative = inhibition) at 1uM” value falls from 18% to 17%.

Compared with `CC(=NCCC1=CCCCC1)c1c(O)[nH]c(=O)[nH]c1=O`, `O=C(O)COc1ccccc1/C=C1\C(=O)NC(=O)N(CCC2=CCCCC2)C1=O` is higher in “hERG current change (%, negative = inhibition) at 1uM” value: 7.55% for the first, 16.7% for the second.

Going from `CCCCNC(=O)Nc1ccon1` to `CCNC(=S)NS(=O)(=O)c1ccc(Cl)cc1`, the “hERG current change (%, negative = inhibition) at 1uM” value falls from 12% to 9.86%.

Going from `O=C(CCNC(=O)N1C[C@H]2C[C@@H](C1)c1cccc(=O)n1C2)Nc1ccc(F)cc1` to `CN(Cc1ccccc1)C(=O)COC(=O)C1CCN(S(=O)(=O)c2ccc(Cl)c(C(F)(F)F)c2)CC1`, the “hERG current change (%, negative = inhibition) at 1uM” value falls from 19.3% to 1.91%.

Going from `COc1ccc(NC2=CC(=O)CC(C)(C)C2)cc1` to `CCOC(=O)C(Nc1ccc2ccccc2c1)C(=O)OCC`, the “hERG current change (%, negative = inhibition) at 1uM” value rises from 8.24% to 8.71%.

Going from `CCNC(=S)NC1CC2CCCC(C1)N2Cc1ccc(C)cc1` (stereo not shown) to `O=C(NC(=S)Nc1ccc(Cl)cn1)C12CC3CC(CC(C3)C1)C2`, the “hERG current change (%, negative = inhibition) at 1uM” value rises from -12.3% to -4.2%.

Going from `CC(C)(C)OC(=O)NCCCC[C@@H](C(=O)NCCCCCCCCCCC(=O)N1CCN(C(=O)OC(C)(C)C)CC1)n1cc(CCCC(=O)O)nn1` to `Cc1cc(C)n(C(=O)CSc2nnc(SCC(=O)n3nc(C)cc3C)s2)n1`, the “hERG current change (%, negative = inhibition) at 1uM” value falls from 19.9% to 11.6%.

First: Cc1nc(SCC(=O)N(C)Cc2ccco2)c2c(C)c(C)sc2n1
Second: O=C(NNc1nc2cc3c(cc2s1)OCO3)c1cccc(F)c1
The “hERG current change (%, negative = inhibition) at 1uM” value of the first is higher: 8.02% for the first, 5.22% for the second.

Compared with `N#C/C(=C\c1ccc(O)c(O)c1)C(=O)N1CCc2ccccc21`, `O=C(C1CC2C=CC1C2)N1CCN(c2ccccc2)CC1` (stereo not shown) is higher in “hERG current change (%, negative = inhibition) at 1uM” value: 1.57% for the first, 5.85% for the second.
